# PMC12040169 (PLOS Biology, 2025)
# Some of the results follow.
# Tested on: T1, C. trachomatis L2/434/Bu expressing GFP (CTL2-GFP)
# T1 construct: L2/434/Bu GFP intracellular growth in HeLa cells
# Parameters: species or system HeLa; C. trachomatis total inclusion area by high-content imaging, normalised to DMSO
# Conditions: total inclusion area; 28.5 h, 10 µM; inhibitor
# Outline: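 Bulk GFP and resorufin signals were read first. Wells were then fixed, stained with Hoechst and imaged to detect GFP inclusions and host nuclei. MICs followed the previously described calculation.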
row,Compound,% of control remaining
1,CSc1ccccc1Nc1ncnc2n[nH]cc12 [CBK288099],96.8009
2,CC(=O)c1ccccc1-c1ccc(C(=O)NCCc2ccccn2)c(NCC2CC2)n1 [CBK076580],72.0855
3,CCn1c(SCC(=O)Nc2ccc(C(=O)O)cc2)nnc1-c1ccccc1C [CBK265927],70.4377
4,CCN1CCN(c2ncnc3c2cnn3-c2cccc(C)c2)CC1 [CBK265814],115.397
5,CO[C@@]12CC[C@@H](OCC3CC3)C[C@@H]1N(Cc1c(C)cnn1C)CC2 [CBK307072],70.7276
6,Cc1cc(C(=O)N2CCN(C(=O)c3ccco3)CC2)n[nH]1 [CBK144447],80.0007
7,COc1cccc(CNCc2ccccc2[N+](=O)[O-])c1OC [CBK262198],95.4349
8,Cc1ccccc1-n1nc(C)c(CN2CCC(O)C(C)C2)c1C (stereo not shown) [CBK282739],94.2856
9,COc1ccc(OCC(=O)Nc2cccc(-c3nnc4c5ccccc5c(C)nn34)c2)cc1 [CBK266743],74.622
10,Cc1cc(NS(=O)(=O)c2ccc(NC(=O)c3ccc(Br)cc3)cc2)no1 [CBK265371],100.738
11,Cc1ccc(N(Cc2ccco2)C(=O)c2cccc(S(=O)(=O)N3CCOCC3)c2)cc1 [CBK265857],73.0467
12,N#Cc1ccccc1C(=O)N(CCO)Cc1ccccc1 [CBK304844],110.637
13,Cc1nn(CCC(=O)NC(C)Cc2ccccn2)c(C)c1Cl (stereo not shown) [CBK281419],87.5051
14,Cn1c2c(ccc1=O)CCCCC2 [CBK005987],36.5421
15,CC(C)OC(=O)N1CCC(C(=O)NC(c2ccccc2)c2ccc3ccccc3n2)CC1 (stereo not shown) [CBK059642],123.349
16,Cc1cccc(CNc2nccnc2-c2ccncc2)c1 [CBK037453],92.499
17,CNC(=O)C1(Cc2ccccc2-c2ccccc2)CCN(C(=O)Cc2ccc(C)cc2)CC1 [CBK286274],111.675
18,O=C(O)C1Cc2ccccc2CN1C(=O)c1ccccc1 (stereo not shown) [CBK286628],114.248
19,CNCCc1nc(-c2ccc(F)cc2)c2cnccn12 [CBK035927],90.5588
20,CCc1cc2cc3c(cc2nc1SCC(=O)Nc1nc(C)c(C)s1)OCO3 [CBK108548],103.775
21,CC(=O)Nc1ccc(S(=O)(=O)NCc2ccc3[nH]c4c(c3c2)CCCC4)cc1 [CBK267122],125.232
22,Clc1cncc(OCCCCOc2ccccc2)n1 [CBK176018],61.1961
23,NC(=O)c1c(NC(=O)c2nc3ccccc3s2)sc2c1CCCCC2 [CBK287566],101.099
24,FC(F)(F)c1ccc(N2CCNCC2)nc1OCCOc1ccc2ccccc2c1 [CBK200002A],49.4534
25,Cc1cc(O)n2nc(CC(=O)NCc3nnc4n3CCCCC4)nc2n1 [CBK306989],55.5128
26,CS(=O)(=O)N1CCCC(C(=O)Nc2cccc3cccnc23)C1 (stereo not shown) [CBK299783],57.8123

row,Compound,% of control remaining
1,CC1CCCCC12NC(=O)N(Cc1csc(-c3cccs3)n1)C2=O (stereo not shown) [CBK305829],85.8167
2,CCCC/C=C/c1cnc(N2CCOCC2)c2nccn12 [CBK091256],68.5277
3,CCCCOC(=O)c1ccc(N2C(=O)CC(N3CCN(c4ccc(F)cc4)CC3)C2=O)cc1 (stereo not shown) [CBK265527],96.9872
4,COC1(CNC(=O)c2cc3ccccc3[nH]2)CCSC1 (stereo not shown) [CBK304605],53.8923
5,O=C(CSc1nnc2c(n1)[nH]c1ccccc12)Nc1ccccc1[N+](=O)[O-] [CBK263195],64.2602
6,COc1ccc(-c2cn(C[C@H]3CC4CCN3C[C@@H]4C(=O)NC3CCCCC3)nn2)cc1 (stereo partly shown) [CBK289084],105.068
7,Cc1cc(CNC(=S)Nc2ccc(S(N)(=O)=O)cc2)nn1C [CBK267077],74.2981
8,Cc1csc2c(C3CCCN(C(=O)C4CC4)C3)nc(C)n12 (stereo not shown) [CBK285212],60.6544
9,CC(C(=O)Nc1ccc(S(N)(=O)=O)cc1)N(C)Cc1cccs1 (stereo not shown) [CBK305945],55.8771
10,Oc1ccc(/C=N/Nc2nnc(-c3ccccc3)c(-c3ccccc3)n2)cc1 [CBK262011],105.95
11,CCOC(=O)C1CCN(S(=O)(=O)c2ccc(C(C)C)cc2)CC1 [CBK200044],73.6459
12,O=C(CN1CCC(c2ccc(F)cc2)CC1)NCc1ccco1 [CBK283641],92.257
13,CN1CC(=O)N(c2ccc(Cl)cc2Cl)C1=O [CBK116319],96.9945
14,Cc1cc(Cl)c(S(=O)(=O)N2CCN(c3ccccn3)CC2)cc1OCC(N)=O [CBK266553],86.356
15,CN1C(=O)c2cccc3c(S(=O)(=O)Nc4ccc(C(=O)O)c(O)c4)ccc1c23 [CBK299799],135.693
16,Cc1occc1C(=O)Nc1cnn(CCCC(=O)O)c1 [CBK270116],77.9399
17,Cc1oc(NC(=O)CN2CCN(c3ccccc3Cl)CC2)c(C#N)c1C [CBK305908],57.7243
18,Cn1cc(CNCCCN2CCc3ccccc32)c(-c2cccnc2)n1 [CBK306316],43.4608
19,Cc1csc(CNCc2c(C(C)C)nn(C)c2N(C)C)n1 [CBK305089],78.8762
20,O=C(NCc1ccc2c(c1)OCO2)c1cnc2sccn2c1=O [CBK287446],77.5904
21,C#CCN1N=C(c2ccc(OC)cc2)Cn2c(cc3sccc32)C1=O [CBK284209],55.5846
22,CC(Oc1ccccc1)C(=O)Nc1ccc(-c2csc(-c3ccccc3)n2)cc1 (stereo not shown) [CBK268855],88.3836
23,CCOC(=O)Cn1c(-c2ccc(OC)cc2)cc2cccnc21 [CBK283320],108.531
24,CCOC(=O)c1cccnc1-c1cc2ccccc2o1 [CBK149237],122.484
25,Cc1ccc(S(=O)(=O)N2/C(=C\COc3ccc(Cl)cc3Cl)C(N3CCOCC3)c3ccccc32)cc1 (stereo not shown) [CBK262740],99.5101
26,COc1cccc(OCCN2CCC3(C2)NCCc2c3[nH]c3cc(OC)ccc23)c1 (stereo not shown) [CBK061794],88.9028
